Assay results reported in article PMC10726135.
This is one part of the list. At the low end of the ranking the order means little. Measured with an extract: partners may take part in the binding.

What follows are sequences tested against T1, HNF4alpha2 (COS-7 nuclear extract) (UniProt P41235) (assay: protein-binding microarray). Conditions: COS-7 nuclear extract on double-stranded Agilent 4x180k PBM; binding buffer, salt, pH and temperature not given; high values mean tight binding; double strand, one strand shown; sequences stand for … in …GCCTAGGGAGATTAGAGTATCGGTCGA.
T1 sequence: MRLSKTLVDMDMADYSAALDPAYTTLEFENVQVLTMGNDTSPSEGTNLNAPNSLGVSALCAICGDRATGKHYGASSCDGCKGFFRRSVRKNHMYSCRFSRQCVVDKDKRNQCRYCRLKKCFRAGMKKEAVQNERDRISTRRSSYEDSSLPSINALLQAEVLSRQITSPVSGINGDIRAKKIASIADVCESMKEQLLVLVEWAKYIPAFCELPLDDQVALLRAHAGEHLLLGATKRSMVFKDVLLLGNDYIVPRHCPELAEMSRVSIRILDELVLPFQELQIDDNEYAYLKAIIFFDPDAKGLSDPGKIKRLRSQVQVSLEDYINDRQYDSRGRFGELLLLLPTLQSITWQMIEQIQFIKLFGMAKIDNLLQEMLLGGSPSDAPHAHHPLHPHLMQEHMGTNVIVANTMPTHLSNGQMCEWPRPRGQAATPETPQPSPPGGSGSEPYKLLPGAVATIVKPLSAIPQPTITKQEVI

Sequence	binding signal (log2 normalized intensity)
TGTGGTTGACAGGCAACAATTTGAGGGGTC	1.69
CTCCATCCCTCATCTGTCATTCCCTCACTC	0.287
TGGAACGGGGGCAAGGGTCAGAGTAAAGCT	3.23
ACTTTCCAGTCTAGGTCTGGAAGGAAGGAG	-1.18
GTAGGTACGTTTGTGATACACCTTGCCTGG	0.423
ATAATCAGAGGCCTGATTATCAGGTGCCTG	-1.13
ACCTTGATGCTGGACTTCAGCCTCCAGAAC	3.67
AGGCCGGAAAAGATTAGATTGCTCAGAGGC	-0.849
GACACAAAGAGACAAAGCTTTGAAGATGCT	-1.11
ACACTTGTATGACCTTTGTTTTATTGTCAT	3.64
ATGTGCTTCATGGAGAGAATTCCCATCCCA	-1.04
TGATAAAGGGGGCAAAGGGCATGGGCAGCT	3.81
GGTCCCTAGGAGATACGCCTGAACTTTGAT	3.61
TCTTTAGGCCAAACAAAAATATGGACTTTG	5.84
GTAGGACAGAGTAAAGCCACTGCCTAGATA	-0.984
GTGTGGTGCAGATTCCACACTGGCTAGATA	-1.19
AGGGGGCGGGCGGACTCCGAGCCATTTTGG	-1.14
GGGAGGAGGGCAACCTTTGAACTGGGTCTT	4.09
TCTAAGCCCTTATCAAAAAGATAAGGACAC	-1.12
TACGCTGTCGTTTGCTTAGTCTTATCTGAG	0.476
GAAACACTCTGTTTGTAAAGTCTACAAGTG	1.09
AAAGATACTCTCATCACTTAGGATATTCCA	-1.16
GACCTTTATGGGAAAAAAAAACCACTGTGT	0.868
GTCTTGCTTTGATGTTGATGGTTGCTGACT	2.03
GATTTCATCTAAGGACAAACTTTGTCACTG	1.15

Sequence	binding signal (log2 normalized intensity)
ACCTGTTATTTGCGCCTCCCTAGAGCAGCA	-1.11
ATTTGAGGGTGACACTGCTCTCTCCAGGGG	-0.738
AAGGCTAGTCTTCTTTGGGGCTTAGATAGC	0.431
AATTCCCTGCAAGGACAAAGGTCATGTTTT	6.26
CGACCACTGGCTGAACAGGGTCAGTGCAAT	0.96
TCCAAAGGTCAATGCCAGGACCCTGTGGGA	2.76
GCAGAAAAACATATTTGCATAATGGAGCAA	-0.977
TACGTACAATCTAAAAATGTTGAACTCACA	1.89
GAGGCTGAAATGGTTACAAAGGTCACACTC	4.8
GGTGGCAGCAGCAGGCAGGGACTTTGGCCC	5.52
GTGCAGGGGGCGAGCATGGCCGCTCCGCGA	-1.13
CCCGCGCGTGGCCCAGCATGCCCCGCGCCG	-0.967
CCTAAGCCCCATGCTGATAAGGGCCACAGA	-0.987
CGGCTTGCGTCCCCAGGTGAACTCAGTCCT	1.21
CCAAGATACCACTGATAAGGTTCCAGCAAA	-1.03
TTGAAACCTAAGATGTCACAGGCAAGCAAG	-1.11
GACAAGAAAAGTAATGAAAGGAAATCATTC	-0.98
GACCCGTCAGCCCTGGTCCAGGCCATGCAA	-1.21
TCTCTTACCAGCTGGGGTTTTACCAGGCAC	-0.0635
GATAACCCACCTCCGGCCGGGAAGATGCCA	-1.15
ATTAATTAAAGAACTGACAAGCAGTGACCA	1.21
AGGCCTTTATTTGCTTATAGCTCAAAGTCC	4.96
CCCTAGTTTTTCTTCCGGTCACATACTCTG	1.76
GTTAAAGACCTTTGGGTAGGAATAGAGCTC	-0.269
GGGAGAATGATAAGATATATGACTCTAGAT	-1.13

Sequence	binding signal (log2 normalized intensity)
TTCACATTCCATCATCACGGTGGACATTGT	3.48
TGGGTATGTCTGTAGGTAAGCACAAAGTAC	1.92
TGTGAGTCACAAACAGTACTGACATCTATC	-1.11
AGCTCTTTTGAACCCAAGGCCAAACACGGA	0.349
TTGGTCTGAACCTCATCTGTGTAGAAATTG	0.986
GATGCAGAACAAGGTAGCCACAGAATGACT	-1.04
CCTTTCATGTACTGTTCAGTTCCTATTTCA	1.72
ACATACCTTAGGCTGTGCATATTGGTTTAC	1.34
CTACAGAACCTCCCTCCCCATCTCCCCAGA	5.3
AAGCCCAGAACACTCTACCCCCTCCCACTT	4.24
TCTGTCTTGGACTGCGAAAGATAAAAGGCC	0.462
GAGGATGACCTTCCCTGCAGAAAAGGCCCC	1.33
TTTGTAACTTCTTGGCCTGCATAGCACTTT	1.47
GGCACTCCCAGGATAATGGAGAAGATAAGC	-1.19
ACATTCCAGAAAAGGCCTAAAAGGTTATCT	-0.657
TTGGAGAATGCCTTTTGTGTAGGAGTACAC	1.7
AGTCTTGAGTCCCAAAGTCCAAAGGCAGTC	2.83
GGTTCTGCAGGTTCATGGGAGAGCACTTGG	0.91
TGACCTTTGCCTCATTCTTATTGCCTCATG	3.96
TTCCTAACAGTGAATGTTTCGTAATATTTA	-0.309
CAAATTAAACAGCATTTGTTTTAAGTTCAT	0.426
TTTAGATTTTCTCACTCTAAAGGAAGGGAT	-1.07
ACAGGGTGGCTTTGATCTGGGTGGGGGTGG	1.3
